About 5,700 (2.6%) of roughly 220,000 compounds were called active. Inconclusive results, whose numbers are uncertain, are shown with a selection of clear calls. The call rests on the fitted dose curve; in most records, active means well fitted inhibition curve with a large enough effect; inconclusive means small, poorly fitted or top-dose-only effect; inactive means no such curve, though single readings can be large or run the other way. Potencies of inconclusive entries are doubtful fits and often do not repeat.
molecular target: Lysine-specific demethylase 5B (Homo sapiens) (UniProt Q9UGL1); experiment: Primary screen for KDM5B Histone Demethylases FDH-coupled qHTS; conditions: FDH-coupled NADH fluorescence (FDH is formaldehyde dehydrogenase); activity change, negative = inhibition: at 57.7 µM (top of the series) unless noted; further: nearly all actives have a fitted effect of over 70% in size; on activity change, negative = inhibition: 0% is about no effect
Summary of the method: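 Compound dilutions met 200 nM (final) KDM5BΔAP for 10 min at room temperature before substrate addition. The substrate mix held 12.5 µM H3K4me3 with cofactors 25 µM α-ketoglutarate and 50 µM Fe²⁺. NADH signal gain over 30 min defined activity.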
Potency means the concentration at half of the fitted maximal effect; tags describe the fitted curve by direction and shape.

UniProt Q9UGL1, sequence (Q9UGL1 whole entry, looked up): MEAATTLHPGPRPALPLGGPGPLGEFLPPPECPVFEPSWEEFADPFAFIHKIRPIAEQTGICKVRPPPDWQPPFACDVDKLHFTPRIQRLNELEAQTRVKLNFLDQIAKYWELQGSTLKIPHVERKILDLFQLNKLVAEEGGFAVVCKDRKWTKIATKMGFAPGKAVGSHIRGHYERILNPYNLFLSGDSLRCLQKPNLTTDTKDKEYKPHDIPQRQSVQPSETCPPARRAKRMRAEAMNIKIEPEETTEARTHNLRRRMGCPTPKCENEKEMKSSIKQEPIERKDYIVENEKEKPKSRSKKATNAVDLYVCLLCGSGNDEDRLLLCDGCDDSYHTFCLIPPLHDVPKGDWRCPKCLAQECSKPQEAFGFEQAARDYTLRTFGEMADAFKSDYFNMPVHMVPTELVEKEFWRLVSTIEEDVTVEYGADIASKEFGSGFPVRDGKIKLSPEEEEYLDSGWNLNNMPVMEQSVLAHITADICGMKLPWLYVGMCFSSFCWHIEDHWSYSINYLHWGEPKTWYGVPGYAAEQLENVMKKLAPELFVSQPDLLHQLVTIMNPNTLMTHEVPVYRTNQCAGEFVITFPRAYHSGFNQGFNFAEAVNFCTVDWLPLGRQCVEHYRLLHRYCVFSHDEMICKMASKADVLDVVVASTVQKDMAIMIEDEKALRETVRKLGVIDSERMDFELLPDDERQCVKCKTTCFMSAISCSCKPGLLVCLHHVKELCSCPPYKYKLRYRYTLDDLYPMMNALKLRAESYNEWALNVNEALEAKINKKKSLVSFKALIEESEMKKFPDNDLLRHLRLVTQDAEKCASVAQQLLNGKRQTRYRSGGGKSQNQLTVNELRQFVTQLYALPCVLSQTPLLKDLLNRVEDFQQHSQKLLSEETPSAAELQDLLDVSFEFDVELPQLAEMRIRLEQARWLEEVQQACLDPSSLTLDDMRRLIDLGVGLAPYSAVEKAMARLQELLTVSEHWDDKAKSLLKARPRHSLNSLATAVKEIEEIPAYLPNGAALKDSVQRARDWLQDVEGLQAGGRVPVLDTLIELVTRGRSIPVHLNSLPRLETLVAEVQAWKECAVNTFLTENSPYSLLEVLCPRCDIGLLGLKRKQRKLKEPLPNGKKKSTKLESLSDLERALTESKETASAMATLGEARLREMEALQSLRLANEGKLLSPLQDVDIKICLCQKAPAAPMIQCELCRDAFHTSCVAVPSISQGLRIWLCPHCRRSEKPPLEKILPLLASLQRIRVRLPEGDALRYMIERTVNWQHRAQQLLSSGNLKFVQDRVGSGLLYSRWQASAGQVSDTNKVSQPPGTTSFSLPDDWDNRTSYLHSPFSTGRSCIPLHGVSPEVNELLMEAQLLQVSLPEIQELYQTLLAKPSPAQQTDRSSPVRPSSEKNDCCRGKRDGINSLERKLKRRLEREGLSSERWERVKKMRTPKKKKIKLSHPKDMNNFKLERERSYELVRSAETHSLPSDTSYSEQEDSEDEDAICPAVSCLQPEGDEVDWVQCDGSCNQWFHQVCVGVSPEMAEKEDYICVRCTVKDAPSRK

Structure (SMILES) | activity change, negative = inhibition | Potency
O=C1NCC2(CCN(Cc3ccsc3)CC2)Oc2ccccc21 | inactive: 7.92% [at 149 µM] | 
O=[S+]1([O-])NCC2(CCN(Cc3ccsc3)C2)Nc2ccccc21 (stereo unspecified) |  | inconclusive: 35.5 µM [inhibitor, single point]
CCN(CC)S(=O)(=O)NCc1ccccc1Cn1cccn1 |  | inconclusive: 25.1 µM [inhibitor, single point]
CCc1nc2ccccc2n1CCCCOc1ccc(C)cc1 |  | inconclusive: 39.8 µM [inhibitor, single point]
CN1CCN(c2cc(=O)c3ccnc(-c4ccc(CO)cc4)c3o2)CC1 |  | active: 35.5 µM
CSc1cccc(NC(=O)/C=C/c2cccc3ccccc23)c1 | inactive: -4.35% | 
CCN(CC)CCNC(=O)c1ccc(Cn2c(SCc3ccccc3)nc3cccnc32)cc1 |  | inconclusive: 25.1 µM [inhibitor, partial curve, poor fit]
CN(C)c1cccc(C(=O)N2CCN(c3cc(-c4ccc(Cl)cc4)[nH]n3)CC2)c1 |  | active: 31.6 µM
Cc1ccc(CNC(=O)c2c(C)sc3ccn(CC(C)C)c(=O)c23)o1 |  | active: 25.1 µM
Cc1cccc(-n2nc(-c3c(C)nc4scc(CC(=O)NCCC(C)C)n4c3=O)cc2C)c1 |  | active: 25.1 µM
CNC(=O)CCn1ncc2cc(OCc3ccccc3-c3ccccc3OC)ccc21 |  | inconclusive: 31.6 µM [inhibitor, single point]
CC(C)Cn1c(N)c(-c2csc(Nc3ccc(Cl)cc3)n2)c(=O)n(C)c1=O |  | inconclusive: 25.1 µM [inhibitor, partial curve, poor fit]
O=c1c2cc([N+](=O)[O-])ccc2ncn1Cc1coc(-c2cccs2)n1 | inactive: 18.7% | 
CCC(C)(C)NC(=O)CC(NC(N)=O)c1ccccc1C (stereo unspecified) | inactive: 16.7% | 
CS(=O)(=O)c1ccc(-c2nnc(NC(=O)c3ccc4c(c3)OCCO4)o2)cc1 |  | inconclusive: 28.2 µM [inhibitor, partial curve, poor fit]
Cc1ccc(C2(O)CCN(c3ncccc3C(F)(F)F)CC2)nc1 | inactive: -1.46% | 
COCC1CN(Cc2cccc(OC(F)(F)F)c2)CC12CCNCC2 (stereo unspecified) |  | inconclusive: 31.6 µM [inhibitor, partial curve, poor fit]
CCCCC(=O)Nc1ccc(-c2nc3cc(CC)ccc3o2)cc1 | inactive: 192% | 
Cc1ccc(-c2nc3cc(C)c(C)cc3nc2-c2ccc(C)cc2)cc1 | inactive: -15.9% | 
COCCCNC(=O)c1ccc(NC(=O)c2nsc3ccccc23)cc1 |  | inconclusive: 15.8 µM [inhibitor, partial curve, poor fit]
CN(C)C(=O)COC(=O)c1ccccc1-c1nc2ccccc2s1 | inactive: -28.1% | 
COc1ccc2cc(C(=O)NCC(=O)Nc3cccc(C)c3C)c(C)nc2c1 |  | inconclusive: 20 µM [inhibitor, partial curve, poor fit]

Structure (SMILES) | activity change, negative = inhibition | Potency
O=c1cnnc(N/N=C/c2ccccn2)[nH]1 |  | inconclusive: 3.16 µM [inhibitor, full curve, poor fit]
Cc1nc(CNCc2cccc(NC(=O)c3cccc(F)c3)c2)cs1 | inactive: -2.86% | 
O=C(NCC1CCN(Cc2ccccn2)C1)Nc1ccc(F)cc1 (stereo unspecified) |  | inconclusive: 8.91 µM [inhibitor, partial curve, poor fit]
CCN(CC)C(=O)CN(C)C(=O)c1cc2cc(F)ccc2[nH]1 |  | inconclusive: 31.6 µM [inhibitor, partial curve, poor fit]
COc1ccc(CNC(=O)c2ccc(N3CCCC3)c(NC(=O)NCc3ccc(F)cc3)c2)cc1 |  | inconclusive: 35.5 µM [inhibitor, single point]
Cc1ccc(-c2cc3c(=O)n(CCNC(=O)c4ccc(N(C)C)cc4)ccn3n2)c(C)c1 |  | active: 28.2 µM
CN1CCCC2(C1)CN(Cc1cccnc1)c1ccc(C(=O)Nc3ccccc3)cc12 (stereo unspecified) |  | inconclusive: 31.6 µM [inhibitor, single point]
Cc1ccccc1OCc1nc(-c2ccccc2OCC(=O)N2CCC(C)CC2)no1 | inactive: 4.45% | 
Cc1ccc(-c2cc3ncc4c(n3n2)-c2cc(C)ccc2OC4)cc1 |  | inconclusive: 35.5 µM [inhibitor, partial curve, poor fit]
Cc1ccc2nc(N3CCN(c4cccc(Cl)c4)CC3)c(-n3nc(C)cc3C)nc2c1 |  | inconclusive: 39.8 µM [inhibitor, single point]
O=C1CCN(Cc2ccncc2)CCCC(C(=O)N2CCc3ccccc32)CCN1 (stereo unspecified) |  | inconclusive: 22.4 µM [inhibitor, single point]
COc1cc(-c2cc(OC)c3c(C)oc(C)c3c(=O)c2)ccc1OC(=O)c1ccccc1Cl |  | inconclusive: 15.8 µM [inhibitor, partial curve, poor fit]
COc1cc(Cl)c(NC(=O)CCS(=O)(=O)c2cc3c(cc2Cl)NC(=O)CO3)c(OC)c1 |  | inconclusive: 35.5 µM [inhibitor, single point]
CCc1ccccc1NC(=O)c1c(NC(=O)c2ccccc2)sc2c1CCCC2 |  | inconclusive: 31.6 µM [inhibitor, single point]
CCOC(=O)C1CCC(CN(Cc2cccc(Br)c2)S(=O)(=O)c2ccc(C)cc2)CC1 (stereo unspecified) | inconclusive: -33.8% [inhibitor] | 
O=C(COc1ccc(Cl)cc1)Nc1ccc(-c2nc3ccccc3s2)c(O)c1 |  | inconclusive: 28.2 µM [inhibitor, partial curve, poor fit]
COc1ccc(-c2nc(C3CC3)nc3c2CCN(Cc2cc(C)on2)CC3)cc1 |  | inconclusive: 44.7 µM [inhibitor, partial curve]
COc1ccc(CN2CCNc3cnc(Nc4ccccc4)cc3C2)cc1 |  | active: 35.5 µM
NC(=O)CN1C(=O)CO[C@H]2CN(CCCc3ccccc3)C[C@H]21 |  | inconclusive: 31.6 µM [inhibitor, partial curve]
COc1ccc(CCn2cc3c(c2-c2ccc(Br)cc2)c(=O)n(C)c(=O)n3C)cc1OC |  | inconclusive: 1.41 µM [inhibitor, partial curve, poor fit]
Cc1[nH]c2ccccc2c1C1c2ccccc2C(=O)N1CCc1ccccc1 (stereo unspecified) | inactive: 2.4% | 
O=C(CCN(Cc1cccs1)CC1CCCO1)Nc1cccc2ccccc12 (stereo unspecified) | inactive: 4.03% | 

Structure (SMILES) | activity change, negative = inhibition | Potency
CN(CCC#N)C(=O)COC(=O)c1cc(=O)[nH]c2ccccc12 |  | inconclusive: 28.2 µM [inhibitor, single point]
Cc1ccc(-c2cc(N3CCC(CNC(=O)c4ccc(N(C)C)cc4)CC3)n[nH]2)cc1 |  | inconclusive: 7.08 µM [inhibitor, partial curve, poor fit]
O=C(NCCc1ccccc1Cl)c1ccc(Cn2c(=O)c3cccn3c3cccnc32)cc1 |  | inconclusive: 28.2 µM [inhibitor, partial curve, poor fit]
O=C(NCCC1=CCCCC1)c1cc2n(n1)CC(c1ccc3c(c1)OCO3)OC2 (stereo unspecified) |  | inconclusive: 14.1 µM [inhibitor, partial curve]
O=C(Cc1ccc2c(c1)OCO2)N1CCc2onc(-c3cccc(F)c3)c2C1 | inactive: 13% | 
Cn1cc(CN[C@H]2C[C@H]3C(=O)NC[C@@H](CCC(=O)NCc4ccc(F)cc4)N3C2)c2ccccc21 |  | inconclusive: 28.2 µM [inhibitor, single point]
CCOc1ccc(-c2nonc2NC(=O)COc2c(C)cc(C)cc2C)cc1OCC |  | inconclusive: 5.01 µM [inhibitor, partial curve, poor fit]
CN(Cc1ccccc1)C(=O)c1ccc2c(c1)CCCN2S(C)(=O)=O | inactive: -17% | 
Cc1cc(C)c(C(=O)N2CCOC(Cc3ccc(F)cc3)C2)o1 (stereo unspecified) |  | inconclusive: 22.4 µM [inhibitor, partial curve, poor fit]
COc1ccc2c(c1)c1c(c(=O)n(Cc3ccccc3)c(=O)n1CC(=O)NCc1ccccc1Cl)n2C |  | inconclusive: 39.8 µM [inhibitor, single point]
Cc1cc(-c2cc3c(cn2)CN(Cc2ccccc2O)CCN3)ccn1 | inactive: 7.57% [at 86.2 µM] | 
O=C(CSc1cn(CC(=O)N2CCCC2)c2ccccc12)Nc1cccc(C(F)(F)F)c1 | inactive: 7.85% | 
CCc1cccc(NC(=O)CSC2=Nc3ccccc3N=C(c3ccc(F)cc3)C2)c1 |  | inconclusive: 5.01 µM [inhibitor, partial curve, poor fit]
CC(=O)NC(C)C(=O)NC(C)c1ccc(Cl)cc1 (stereo unspecified) | inactive: 17.7% | 
Cc1c(CCNC(=O)c2ccc(Br)o2)sc2nc(-c3ccc(F)cc3)nn12 |  | inconclusive: 2.24 µM [inhibitor, partial curve, poor fit]
O=C(c1cc(Cl)ccc1F)N1CCN(Cc2nnnn2C2CC2)CC1 | inactive: -5.51% | 
O=C(O)CCCC(=O)Nc1ccc(-c2nc3ccccc3o2)cc1 |  | inconclusive: 22.4 µM [inhibitor, partial curve, poor fit]
CCNC(=O)COC(=O)c1cc(-c2ccc(C)o2)nc2ccccc12 |  | inconclusive: 22.4 µM [inhibitor, partial curve, poor fit]
Cc1ccc(C(=O)Nc2ccc(NC(=O)c3cccs3)cc2)cc1C |  | inconclusive: 12.6 µM [inhibitor, partial curve, poor fit]
CCc1noc(-c2ccn3c(CNC(=O)COc4ccc(F)cc4)nnc3c2)n1 |  | inconclusive: 20 µM [inhibitor, partial curve, poor fit]
COc1ccc(C(O)P(=O)(OC(C)C)c2ccc(N(C)C)cc2)c(OC)c1 (stereo unspecified) |  | inconclusive: 31.6 µM [inhibitor, partial curve, poor fit]
Cc1cccc(C)c1OCc1cc(C(=O)N2CCCC(C(=O)c3nccn3C)C2)no1 (stereo unspecified) |  | inconclusive: 3.16 µM [inhibitor, single point]
